{"sequences": {"note": "Sequences of proteins named here, by UniProt entry; tags and fusion partners are left off. A change or cut given only in a name is not applied to a line headed by its entry. Residues count along the entry.", "UniProt Q14194": "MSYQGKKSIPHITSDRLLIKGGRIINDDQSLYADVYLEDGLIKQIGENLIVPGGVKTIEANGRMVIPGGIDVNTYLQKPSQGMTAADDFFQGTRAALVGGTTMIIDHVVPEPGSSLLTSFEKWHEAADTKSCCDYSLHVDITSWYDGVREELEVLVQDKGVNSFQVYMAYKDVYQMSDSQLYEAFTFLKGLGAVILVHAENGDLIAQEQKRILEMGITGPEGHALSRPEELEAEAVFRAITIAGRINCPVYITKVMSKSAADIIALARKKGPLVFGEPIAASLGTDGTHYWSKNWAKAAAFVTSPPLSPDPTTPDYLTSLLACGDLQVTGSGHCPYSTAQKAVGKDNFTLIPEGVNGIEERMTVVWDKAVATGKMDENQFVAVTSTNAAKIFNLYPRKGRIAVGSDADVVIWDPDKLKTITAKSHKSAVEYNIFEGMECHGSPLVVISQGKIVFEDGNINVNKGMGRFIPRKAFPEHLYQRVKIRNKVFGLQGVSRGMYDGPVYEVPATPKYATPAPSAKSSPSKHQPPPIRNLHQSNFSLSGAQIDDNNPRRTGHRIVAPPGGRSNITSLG", "UniProt P70206, residues 28-1242": "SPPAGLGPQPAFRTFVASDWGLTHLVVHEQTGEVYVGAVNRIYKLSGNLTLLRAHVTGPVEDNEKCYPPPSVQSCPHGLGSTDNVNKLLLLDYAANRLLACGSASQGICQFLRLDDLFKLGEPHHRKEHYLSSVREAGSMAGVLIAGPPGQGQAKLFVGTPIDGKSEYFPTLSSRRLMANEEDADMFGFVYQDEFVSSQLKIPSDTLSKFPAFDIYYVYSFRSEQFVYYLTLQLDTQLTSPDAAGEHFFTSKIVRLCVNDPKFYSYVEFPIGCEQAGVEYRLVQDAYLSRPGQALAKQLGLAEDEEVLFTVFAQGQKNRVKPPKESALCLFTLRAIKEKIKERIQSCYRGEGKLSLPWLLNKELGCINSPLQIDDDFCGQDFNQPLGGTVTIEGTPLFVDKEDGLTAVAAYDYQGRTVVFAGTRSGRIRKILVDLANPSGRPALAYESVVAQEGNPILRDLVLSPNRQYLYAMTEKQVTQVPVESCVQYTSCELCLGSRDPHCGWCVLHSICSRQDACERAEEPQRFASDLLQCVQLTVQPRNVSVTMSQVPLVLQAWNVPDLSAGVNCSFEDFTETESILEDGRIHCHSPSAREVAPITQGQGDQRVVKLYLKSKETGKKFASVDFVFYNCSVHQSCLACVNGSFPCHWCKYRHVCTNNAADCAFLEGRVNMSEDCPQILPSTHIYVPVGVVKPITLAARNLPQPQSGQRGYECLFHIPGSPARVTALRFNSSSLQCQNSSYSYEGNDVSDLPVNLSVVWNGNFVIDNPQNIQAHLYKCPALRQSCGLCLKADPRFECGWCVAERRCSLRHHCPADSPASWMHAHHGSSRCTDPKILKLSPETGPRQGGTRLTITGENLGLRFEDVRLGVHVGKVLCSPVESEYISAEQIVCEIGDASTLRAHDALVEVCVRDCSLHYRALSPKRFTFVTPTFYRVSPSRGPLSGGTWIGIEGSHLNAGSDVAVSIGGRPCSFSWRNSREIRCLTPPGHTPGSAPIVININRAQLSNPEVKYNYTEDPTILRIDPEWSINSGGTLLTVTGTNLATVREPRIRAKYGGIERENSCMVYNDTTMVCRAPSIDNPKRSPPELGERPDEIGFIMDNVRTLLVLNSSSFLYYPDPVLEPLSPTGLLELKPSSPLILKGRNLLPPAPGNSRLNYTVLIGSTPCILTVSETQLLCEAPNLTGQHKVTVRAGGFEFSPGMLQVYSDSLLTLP"}, "source": "paper PMC8174033", "key": {"[1]": {"molecular_target": "T1, fasciculation and elongation protein zeta 1 (FEZ1), full-length, FLAG-tagged (UniProt Q99689)", "T1 sequence": "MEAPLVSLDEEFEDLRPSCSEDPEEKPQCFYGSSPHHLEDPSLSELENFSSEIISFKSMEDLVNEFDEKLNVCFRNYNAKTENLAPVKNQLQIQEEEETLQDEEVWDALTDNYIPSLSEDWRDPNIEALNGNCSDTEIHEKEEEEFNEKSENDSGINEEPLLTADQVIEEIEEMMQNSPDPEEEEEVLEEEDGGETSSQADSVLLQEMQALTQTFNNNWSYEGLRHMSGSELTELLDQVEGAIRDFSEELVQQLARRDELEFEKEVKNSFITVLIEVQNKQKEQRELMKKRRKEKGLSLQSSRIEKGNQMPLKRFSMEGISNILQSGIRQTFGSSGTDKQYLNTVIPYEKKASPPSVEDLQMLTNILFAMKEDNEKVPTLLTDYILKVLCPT", "test": "co-IP; HEK293 cells co-expressing the two tagged proteins, 24 h after transfection; lysis and washes in 50 mM HEPES, 150 mM NaCl, 1 mM EDTA, 1% Triton X-100, pH 7.2; IP with α-FLAG and Protein A/G agarose at 4°C; immunoblot"}, "[2]": {"molecular_target": "T1, fasciculation and elongation protein zeta 1 (FEZ1), full-length, FLAG-tagged", "test": "co-IP; HEK293 cells expressing three proteins together (FLAG-FEZ1, mCherry-Nrp1, EmGFP-PlxnA1 ED); HEPES lysis buffer with 1% Triton X-100; IP with α-FLAG; immunoblot"}, "[3]": {"molecular_target": "T2, FEZ1 S316A phosphomutant, EmGFP-tagged (UniProt Q99689)", "T2 sequence": "T1 sequence with S316A", "test": "co-IP; HEK293 cells co-expressing the two tagged proteins, 24 h after transfection; lysis and washes in 50 mM HEPES, 150 mM NaCl, 1 mM EDTA, 1% Triton X-100, pH 7.2; GFP-Trap agarose beads 1-3 h at 4°C; immunoblot"}, "[4]": {"molecular_target": "T3, FEZ1 (amino acids 131-210), EmGFP-tagged (UniProt Q99689)", "T3 sequence": "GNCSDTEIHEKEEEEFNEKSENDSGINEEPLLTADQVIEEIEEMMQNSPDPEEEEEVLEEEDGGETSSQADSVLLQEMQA", "test": "co-IP; HEK293 cells co-expressing the two tagged proteins, 24 h after transfection; lysis and washes in 50 mM HEPES, 150 mM NaCl, 1 mM EDTA, 1% Triton X-100, pH 7.2; GFP-Trap agarose beads 1-3 h at 4°C; immunoblot"}, "[5]": {"molecular_target": "FEZ1 (amino acids 1-308), EmGFP-tagged (UniProt Q99689)", "test": "co-IP; HEK293 cells co-expressing the two tagged proteins, 24 h after transfection; lysis and washes in 50 mM HEPES, 150 mM NaCl, 1 mM EDTA, 1% Triton X-100, pH 7.2; GFP-Trap agarose beads 1-3 h at 4°C; immunoblot"}, "[6]": {"molecular_target": "T4, fasciculation and elongation protein zeta 1 (FEZ1), full-length, EmGFP-tagged (UniProt Q99689)", "T4 sequence": "T1 sequence", "test": "co-IP; HEK293 cells co-expressing the two tagged proteins, 24 h after transfection; lysis and washes in 50 mM HEPES, 150 mM NaCl, 1 mM EDTA, 1% Triton X-100, pH 7.2; GFP-Trap agarose beads 1-3 h at 4°C; immunoblot"}, "[7]": {"molecular_target": "T5, FEZ1 (amino acids 1-220), EmGFP-tagged (UniProt Q99689)", "T5 sequence": "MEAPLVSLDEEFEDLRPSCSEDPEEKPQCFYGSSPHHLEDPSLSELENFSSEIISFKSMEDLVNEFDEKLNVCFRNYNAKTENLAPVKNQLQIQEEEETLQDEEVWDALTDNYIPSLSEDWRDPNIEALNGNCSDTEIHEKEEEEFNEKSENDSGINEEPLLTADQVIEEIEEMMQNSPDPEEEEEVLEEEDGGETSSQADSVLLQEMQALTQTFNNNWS", "test": "co-IP; HEK293 cells co-expressing the two tagged proteins, 24 h after transfection; lysis and washes in 50 mM HEPES, 150 mM NaCl, 1 mM EDTA, 1% Triton X-100, pH 7.2; GFP-Trap agarose beads 1-3 h at 4°C; immunoblot"}, "[8]": {"molecular_target": "T6, FEZ1 S58A phosphomutant, EmGFP-tagged (UniProt Q99689)", "T6 sequence": "T1 sequence with S58A", "test": "co-IP; HEK293 cells co-expressing the two tagged proteins, 24 h after transfection; lysis and washes in 50 mM HEPES, 150 mM NaCl, 1 mM EDTA, 1% Triton X-100, pH 7.2; GFP-Trap agarose beads 1-3 h at 4°C; immunoblot"}, "[9]": {"molecular_target": "T7, FEZ1 QUAD phosphomutant (S58A, S134A, S301A, S316A), EmGFP-tagged (UniProt Q99689)", "T7 sequence": "T1 sequence with S58A, S134A, S301A, S316A", "test": "co-IP; HEK293 cells co-expressing the two tagged proteins, 24 h after transfection; lysis and washes in 50 mM HEPES, 150 mM NaCl, 1 mM EDTA, 1% Triton X-100, pH 7.2; GFP-Trap agarose beads 1-3 h at 4°C; immunoblot"}}, "note": "Substitutions are numbered along the chain they refer to. No constants are given. Whether binding was seen depends on the method and setting. In cells and extracts the contact can be indirect. Some entries that bind do so weakly or less than the wild type. For part of these data: Where a sequence is shown, tags or fusion partners need not be part of it.", "data": [{"substance": "CRMP1 (amino acids 1-462), N-terminal and central amidohydrolase family domain, EmGFP-tagged (from UniProt Q14194 1-462) (domain or fragment)", "values": [{"measurement": "binding", "setting": "[1]", "result": "binds"}]}, {"substance": "CRMP1 (amino acids 465-572), C-terminal region, EmGFP-tagged (from UniProt Q14194 465-572) (domain or fragment)", "values": [{"measurement": "binding", "setting": "[1]", "result": "binds"}]}, {"substance": "Plexin A1 extracellular domain, EmGFP-tagged (from UniProt P70206 28-1242) (domain or fragment)", "values": [{"measurement": "binding", "setting": "[2]", "result": "binds"}]}, {"substance": "collapsin response mediator protein 1 (CRMP1), full-length, EmGFP-tagged (from UniProt Q14194 1-572)", "values": [{"measurement": "binding", "setting": "[1]", "result": "binds"}]}, {"substance": "collapsin response mediator protein 1 (CRMP1), full-length, FLAG-tagged (from UniProt Q14194 1-572)", "values": [{"measurement": "binding", "setting": "[3]", "result": "binds"}, {"measurement": "binding", "setting": "[4]", "result": "no binding"}, {"measurement": "binding", "setting": "[5]", "result": "binds"}, {"measurement": "binding", "setting": "[6]", "result": "binds"}, {"measurement": "binding", "setting": "[7]", "result": "no binding"}, {"measurement": "binding", "setting": "[8]", "result": "binds"}, {"measurement": "binding", "setting": "[9]", "result": "binds"}]}, {"substance": "neuropilin 1 (Nrp1), mCherry-tagged (from UniProt P97333 22-923) (receptor)", "values": [{"measurement": "binding", "setting": "[2]", "result": "binds"}]}]}
